From the RNAGym collection of RNA variant scans (doi:10.7554/elife.90254)
The source gives no read counts; variants with many changes may rest on few reads.

B1: LINE1-mini (parent)
chain: GGCAGAGCUCAACACAGCGUGGCAAAGUGGCUGUGGCUAGACUGCC

Variants of: B1
Assay: self-cleavage, relative activity (ratio to wild type); higher = more cleavage; in vitro, sequencing; the parent is a self-cleaving ribozyme
GGCAGAGCUCAACACAGAGUGGCAAUGUGGGUGAGGCUCGACUGCC [C18A A26U C31G U34A A39C] gave a self-cleavage of 0.08.
In the case of GGCAGAGCUCAACACAGAGUGGCAAUAUGGCAGUGGCUAGACUGUC [C18A A26U G27A U32A C45U], the self-cleavage is reported as 0.03.
For GGCAGAGCUCAACACAGAGUGGCAAUGUGGCCGUGCCUAGACUGCC [C18A A26U U32C G36C], the self-cleavage was 0.02.
For GGCAGAGCUCAACACAGAGUGGCAAAGUGGCUGUGGCUAGUUUGCC [C18A A41U C42U], the self-cleavage was 0.03.
With GGCAGAGCUCAACACAGAGUGGAAAACUGGUUGUGGCUAGACGGCC [C18A C23A G27C C31U U43G] the self-cleavage was 0.
GGCAGAGCUCAACACAGAGUGGAAAAGUGGCUGUAGGUAGACUGCC [C18A C23A G35A C37G] showed a self-cleavage of 0.05.
Work on GGCAGAGCUCAACACAGAGUGGGAAAGUGGCUGUGUCUAUACUGCC [C18A C23G G36U G40U] yielded a self-cleavage of 0.59.
GGCAGAGCUCAACACAGAGUGGUAUCGUGGCUGUGGCUAGACUGCC [C18A C23U A25U A26C] gave a self-cleavage of 0.19.
GGCAGAGCUCAACACAGAGUGGCAAAGUGGUUGUGUCUAGCCUCCC [C18A C31U G36U A41C G44C] showed a self-cleavage of 0.
Work on GGCAGAGCUCAACACAGAGUGGCAAAGUGGUUGUGGCGAGACUGCC [C18A C31U U38G] yielded a self-cleavage of 0.01.
Variant GGCAGAGCUCAACACAGAGUGGCAAAGUGGCUGUGGGUAGAGUGCC [C18A C37G C42G] has a self-cleavage of 0.02.
Variant GGCAGAGCUCAACACAGAGUGGCAAAGUGGCUGUGGCUAGACUGAA [C18A C45A C46A] has a self-cleavage of 0.08.
GGCAGAGCUCAACACAGAAUGGCAAAGUGGCUGUGUUUAGACUGCC [C18A G19A G36U C37U] gave a self-cleavage of 0.03.
For GGCAGAGCUCAACACAGAAUGGCAAAGUGGCUGUGGCUAGACUACC [C18A G19A G44A], the self-cleavage was 0.17.
GGCAGAGCUCAACACAGAAUGGCAAAGUGGCUGUGGCUAGACAGCC [C18A G19A U43A] showed a self-cleavage of 0.03.
Variant GGCAGAGCUCAACACAGACUGGCAAAGUGGAUGUGGCUUGAGUGCC [C18A G19C C31A A39U C42G] has a self-cleavage of 0.02.
Work on GGCAGAGCUCAACACAGACUGGCAAAGUUGCGGUGGCUCGACUGCC [C18A G19C G29U U32G A39C] yielded a self-cleavage of 0.04.
GGCAGAGCUCAACACAGACUGGCAAAGUGGCUUUGGCUAGACUGCC [C18A G19C G33U] showed a self-cleavage of 0.02.
For GGCAGAGCUCAACACAGAUUGGCAAAGUGGCUGUGGCUUGACUGCC [C18A G19U A39U], the self-cleavage was 0.13.
Variant GGCAGAGCUCAACACAGAUUGGCAAAGUGGCUGUGGGUAGACUGCC [C18A G19U C37G] has a self-cleavage of 0.01.
For GGCAGAGCUCAACACAGAGUAGCAAAGUGGCUGUGGCUAGAUUGCC [C18A G21A C42U], the self-cleavage was 0.36.
GGCAGAGCUCAACACAGAGUAGCAAAGUGGCUGUAGUUAGACUGCC [C18A G21A G35A C37U] gave a self-cleavage of 0.02.
For GGCAGAGCUCAACACAGAGUUGCAAAGUGGCUGUGGCUAGGCUGUA [C18A G21U A41G C45U C46A], the self-cleavage was 0.03.
In the case of GGCAGAGCUCAACACAGAGUUGAAAAGUGGCUGUGGCUAGACUGCC [C18A G21U C23A], the self-cleavage is reported as 2.23.
With GGCAGAGCUCAACACAGAGUUGCAAAGUGGCGAUGGCUAGACUGCC [C18A G21U U32G G33A] the self-cleavage was 0.12.
In the case of GGCAGAGCUCAACACAGAGUGACAAAGUGGCUGUGGAUAGACUGCC [C18A G22A C37A], the self-cleavage is reported as 0.13.
GGCAGAGCUCAACACAGAGUGACAAAGUGGCUGUGGCUAGACUGGC [C18A G22A C45G] showed a self-cleavage of 0.08.
With GGCAGAGCUCAACACAGAGUGACAAAGUGGCUGUUGCUAGACUGCC [C18A G22A G35U] the self-cleavage was 0.48.
For GGCAGAGCUCAACACAGAGUGACAAAGUGGCUGUGGCUAGACUCCU [C18A G22A G44C C46U], the self-cleavage was 0.05.
GGCAGAGCUCAACACAGAGUGACAAAGCGGCUGUGGCUAGACUGCC [C18A G22A U28C] gave a self-cleavage of 0.78.
For GGCAGAGCUCAACACAGAGUGACAAAGUGGCUGUGGCCAGACUGCC [C18A G22A U38C], the self-cleavage was 1.88.
Work on GGCAGAGCUCAACACAGAGUGCCAAAAUGGCUGUGACUAGCCUGCC [C18A G22C G27A G36A A41C] yielded a self-cleavage of 0.03.
GGCAGAGCUCAACACAGAGUGUCAUAGUGGCUGUGGCUAGAUUGCC [C18A G22U A25U C42U] showed a self-cleavage of 0.87.
In the case of GGCAGAGCUCAACACAGAGUGUCAAAGUGGUUGUGGUUAGACUGGC [C18A G22U C31U C37U C45G], the self-cleavage is reported as 1.28.
GGCAGAGCUCAACACAGAGUGGCAAAAUGGCAGUGGCUAGACUGCU [C18A G27A U32A C46U] gave a self-cleavage of 0.01.
For GGCAGAGCUCAACACAGAGUGGCAAAUUGGCUUUGGCUAGACUGCC [C18A G27U G33U], the self-cleavage was 0.06.
In the case of GGCAGAGCUCAACACAGAGUGGCAAAUUGGCUGUGGCUAAACUGCC [C18A G27U G40A], the self-cleavage is reported as 0.01.
Work on GGCAGAGCUCAACACAGAGUGGCAAAGUAGCUGUGGCUAGAGUGCC [C18A G29A C42G] yielded a self-cleavage of 0.03.
GGCAGAGCUCAACACAGAGUGGCAAAGUAGCUGCGGCUAGACUUCC [C18A G29A U34C G44U] gave a self-cleavage of 0.05.
With GGCAGAGCUCAACACAGAGUGGCAAAGUUGCUGAGGUUAGACUGCC [C18A G29U U34A C37U] the self-cleavage was 0.01.
In the case of GGCAGAGCUCAACACAGAGUGGCAAAGUGACUGUGGCUAGACUGAC [C18A G30A C45A], the self-cleavage is reported as 0.22.
GGCAGAGCUCAACACAGAGUGGCAAAGUGUCUGUUGCUAGACUGCC [C18A G30U G35U] gave a self-cleavage of 0.04.
GGCAGAGCUCAACACAGAGUGGCAAAGUGGCUAUGGCUAGAACGCC [C18A G33A C42A U43C] gave a self-cleavage of 0.04.
Work on GGCAGAGCUCAACACAGAGUGGCAAAGUGGCUAUGUCUAAACUGCC [C18A G33A G36U G40A] yielded a self-cleavage of 0.02.
With GGCAGAGCUCAACACAGAGUGGCAAAGUGGCUCUGGCUAGACUGCG [C18A G33C C46G] the self-cleavage was 0.04.
Work on GGCAGAGCUCAACACAGAGUGGCAAAGUGGCUUUGGCUAGACUCCC [C18A G33U G44C] yielded a self-cleavage of 0.03.
In the case of GGCAGAGCUCAACACAGAGUGGCAAAGUGGCUGUGACUAGACUGCU [C18A G36A C46U], the self-cleavage is reported as 0.12.
Work on GGCAGAGCUCAACACAGAGUGGCAAAGUGGCUGUGUCUUGACUGCC [C18A G36U A39U] yielded a self-cleavage of 0.13.
Work on GGCAGAGCUCAACACAGAGUGGCAAAGUGGCUGUGGCUACACUGAC [C18A G40C C45A] yielded a self-cleavage of 0.01.
For GGCAGAGCUCAACACAGAGUGGCAAAGUGGCUGUGGCUAUAGUGCC [C18A G40U C42G], the self-cleavage was 0.03.
For GGCAGAGCUCAACACAGAGUGGCAAAGUGGCUGUGGCUAGACUAAG [C18A G44A C45A C46G], the self-cleavage was 0.03.
GGCAGAGCUCAACACAGAGAGGCAAUGUAGCUGUGGCUAGACUACC [C18A U20A A26U G29A G44A] gave a self-cleavage of 0.12.
For GGCAGAGCUCAACACAGAGCGGCAAUGUGGCUAUGGCUAGACUGCC [C18A U20C A26U G33A], the self-cleavage was 0.
For GGCAGAGCUCAACACAGAGCGUCAAAGUGGCUGUGUCUAGACUGCC [C18A U20C G22U G36U], the self-cleavage was 0.05.
Work on GGCAGAGCUCAACACAGAGCGGCAAAGGGGCUGUGGCUAGACUGCC [C18A U20C U28G] yielded a self-cleavage of 0.41.
For GGCAGAGCUCAACACAGAGGGGCAUAGUGGCUGUGGCUAGACUGCC [C18A U20G A25U], the self-cleavage was 0.28.
